According to patent US20240239894A1, “THERAPEUTIC BINDING MOLECULES” (MedImmune Limited, priority 2020, published 2024):

Key:
MX-1 cells [1] = assay: Western blot DNA damage response; assay type: cell-based, human; conditions: 10 μg/mL ADC or 10 nM warhead, up to 72 hours
Experimental: Following treatment of MX-1 cells with NIP228, E02-GL, NIP228-SG3932, E02-GL-SG3932, or the warhead SG3924 as a control (10 ug/ml for the mAbs or ADCs and 10 nM for the warhead), lysate was prepared and subjected to western blot analysis with antibodies to pATR, ATR, pATM, ATM, pH2AX, H2AX and actin (loading control)—see FIG. 17B.
HT29+huB7-H4 clone 26 and MX-1 cells were plated in 6-well plates at a density of 500,000 and 1,500,000 cells per well respectively in medium containing 10% heat-inactivated FBS. The next day, the plating medium was removed and cells were subjected to incubation with HT29+huB7-H4 clone26 cells with NIP228, E02-GL, NIP228-SG3932, and E02-GL-SG3932 in complete medium at a concentration of 10 μg/mL. The warhead SG3924 was used at 10 nM as a control. After 72 hours, cells were washed once with phosphate-buffered saline (PBS) and then lysed by adding Laemmil Reducing buffer (loading buffer Boston BioProducts). After a brief incubation, cell lysates were collected, equal amounts were loaded onto Bis NuPAGE Novex Bis-Tris gels (Invitrogen) and proteins transferred to polyvinylidene fluoride (PVDF) membranes (Invitrogen). […] After washing, protein bands were detected by using SuperSignal West Femto Chemiluminescent substrate and SuperSignal West Pico Chemiluminescent substrate (Pierce/Thermo Scientific). […]

SCID mouse PK = assay type: in vivo; conditions: @ 1.25 mg/kg
Description: (§1) The cleavable mal-PEG8-val-ala linker-SG3932 linker-warhead ADC offers the widest relative TI and compares favorably to benchmark. The four comparative linker-warheads are provided below.

[2] = test system: B7-H4 negative HT29 cell line; assay: In-vitro cytotoxicity (CellTiter-Glo); assay type: cell-based, human
Experimental: The effect of E02-GL-SG3932 treatment on cell viability was determined using a target-negative human colon cancer cell line HT29, the engineered human colon cancer cell line HT29-huB7-H4 Clone 26, and a human breast cancer cell line, MX-1, using a CellTiter-Glo assay.

MDA-MB-468 = assay: In vivo efficacy
Description: as §1

MX-1 = assay: In vivo efficacy
Description: as §1

MX-1 cells [3] = assay: Flow cytometry binding; assay type: cell-based, human; conditions: endogenously-expressed B7-H4
Description: (§2) Flow cytometry was used to measure binding of antibody E02-INT and E02-GL-SG3932 to the human breast cancer cell lines MX-1 and MDA-MB-468, and to engineered HT29 colon cancer cells stably expressing human B7-H4.

MDA-MB-468 cells = assay: Flow cytometry binding; assay type: cell-based, human; conditions: endogenously-expressed B7-H4
Description: as §2

[4] = test system: HT29-huB7-H4 Clone 4 and HT29-huB7-H4 Clone 26; assay: Flow cytometry binding; assay type: cell-based, human
Description: as §2

B1: E02-GL-SG3932: E02-GL conjugated via cleavable mal-PEG8-val-ala linker to TOP1i warhead, DAR of 8 (conjugate)
heavy: QVQLQQWGAGLLKPSETLSLACTVYGGSFSGYYWNWIRQPPGKGLEWIGEINHSGSTSYNPSLKSRVTISVDTSKNQFSLKLSSVTAADTAVYYCARVLYNWNVDSWGQGTLVTVSSASTKGPSVFPLAPSSKSTSGGTAALGCLVKDYFPEPVTVSWNSGALTSGVHTFPAVLQSSGLYSLSSVVTVPSSSLGTQTYICNVNHKPSNTKVDKRV[human IgG1 Fc cut from this listing]
light: DIQMTQSPSSLSASVGDRVTITCRASQDIRNDVGWYQQKPGKAPKRLIYAASRLQSGVPSRFSGSGSGTEFTLTISSLQPEDFATYYCLQHNSYPRTFGQGTKVEIKRTVAAPSVFIFPPSDEQLKSGTASVVCLLNNFYPREAKVQWKVDNALQSGNSQESVTEQDSKDSTYSLSSTLTLSKADYEKHKVYACEVTHQGLSSPVTKSFNRGEC
MX-1 cells [1]
  DNA damage response signalling (pATM, pATR, pH2AX): leads to double strand DNA breaks; also recorded: activation of the ATM signalling pathway
SCID mouse PK
  SCID mouse PK CL: 11.3 mL/day/kg
[2]
  activity compared with isotype-matched control ADC (NIP228-SG3932): no difference in activity
MDA-MB-468; first value of cell
  In vivo efficacy MDA-MB-468, dose for tumor stasis: 0.89 mg/kg
MDA-MB-468; second value of cell
  In vivo efficacy MDA-MB-468, dose for 30% regression: 1.35 mg/kg
MX-1; first value of cell
  In vivo efficacy MX-1, dose for tumor stasis: 0.57 mg/kg
MX-1; second value of cell
  In vivo efficacy MX-1, dose for 30% regression: 1.27 mg/kg
MX-1 cells [3]
  cellular binding: bound
MDA-MB-468 cells
  cellular binding: bound
[4]
  cellular binding: bound similarly

Entries after “also recorded” stand apart in the source; their conditions may differ.
